Measured values as given in PubChem BioAssay AID686978 (National Center for Advancing Translational Sciences (NCATS), 2013).
Among all 420,000 compounds or so, about 64,000 (15%) were called active. Inconclusive means that the source gave no clear call. Such entries were picked first, then a sample of the others. The call rests on the fitted dose curve; in most records, active means well fitted inhibition curve with a large enough effect; inconclusive means small, poorly fitted or top-dose-only effect; inactive means flat fitted curve, though single readings scatter. No potency is given beside an inconclusive call; the fits are too rough.

Assay: qHTS for Inhibitors of human tyrosyl-DNA phosphodiesterase 1 (TDP1): qHTS in cells in absence of CPT; further: nearly all actives have a fitted effect of over 55% in size
Settings: DT40 Tdp1-/- hTDP1 cells, no CPT, ATP luminescence, 48 h; activity change, negative = growth inhibition: at 46.2 µM (top of the series) unless noted
In short: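 Cells were dispensed at 400 per well, compounds added by pin tool, plates incubated ≥48 hr at 37 °C, then CellTiter-Glo added for 30 min at room temperature before luminescence reading. Line: DT40 Tdp1-/- complemented with hTDP1; camptothecin omitted.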
On the % scale 0 is the no-effect control and ±100 the full control effect; potency means the concentration at half of the fitted maximal effect; tags describe the fitted curve by direction and shape.

Row | Structure (SMILES) | activity change, negative = growth inhibition | Potency
1 | C#C[C@]1(O)CC[C@H]2[C@H]3CCC4=Cc5oncc5C[C@]4(C)[C@@H]3CC[C@]21C | inconclusive: -22.9% [inhibitor] | –
2 | CC1CN(C(=S)Nc2ccc(F)cc2F)CC(C)O1 (stereo not given) | inactive: 6.21% | –
3 | Cc1nn(-c2ccccc2)c(Cl)c1/C=N/NC(=O)CNC(=O)c1ccccc1Cl | – | inconclusive [inhibitor, partial curve]
4 | Cc1ccc(NC(=O)c2ncn(CCCN[C@H](C)c3cccc4ccccc34)n2)cc1C | – | active: 14.6 µM
5 | Cc1cccn2c(=O)c3cc(C(=O)NC(C)C)c(=N)n(Cc4ccncc4)c3nc12 | inactive: -16.2% | –
6 | CCc1ccc(NSc2ccccc2[N+](=O)[O-])cc1 | – | inconclusive [inhibitor, single point]
7 | COc1ccc(Cl)cc1NC(=O)CN(C)C(=O)CCCNC(=O)c1ccc(Cl)cc1 | – | inconclusive [inhibitor, single point]
8 | CC(C)OCCCn1c(SC(C)C(=O)NC2CC2)nc2ccccc2c1=O (stereo not given) | inactive: -29.1% | –
9 | Cn1nc(C(=O)NCc2ccc(F)cc2)c2c1-c1ccccc1SC2 | – | inconclusive [inhibitor, single point]
10 | CC1(C)SC(=S)N(/N=C/c2ccccc2O)C1N(O)C(=O)Nc1ccccc1 (stereo not given) | – | active: 16.4 µM
11 | COc1ccc(OCCSCc2nnc(NC(=O)Nc3ccc(Cl)cc3)s2)cc1 | – | inconclusive [inhibitor, full curve]
12 | Cc1ccc2c(c1)NC(=O)[C@@]1(C)[C@@H](c3ccccc3)[C@H]3COc4ccc(Cl)cc4[C@@H]3N1C2=O | – | inconclusive [inhibitor, single point]
13 | CC1=C2C3OC(=O)C(C)C3CCC2(C)C=C(Br)C1=O (stereo not given) | – | active: 20.6 µM
14 | COc1ccc(CC2SC(N)=NC2=O)cc1 (stereo not given) | inactive: 3.13% | –
15 | Cc1cc(-c2ccccc2)n2nc(-c3cccc(Br)c3)cc2n1 | – | inconclusive [inhibitor, single point]
16 | COc1ccc(-c2noc(CCC(=O)N3CCN(c4ccccc4C(F)(F)F)CC3)n2)cc1 | inactive: -26.6% | –
17 | O=C(NCC(c1cccs1)N1CCOCC1)c1cc2ccccc2o1 (stereo not given) | – | inconclusive [inhibitor, partial curve]
18 | Cc1cc(NC(=O)CCC(=O)N(CC(=O)NC2CCCC2)Cc2ccccc2Cl)no1 | inconclusive: -32.2% [inhibitor] | –
19 | Cc1ccc(OCCCC(=O)NNC(=O)c2ccccn2)cc1 | – | active: 5.8 µM
20 | Cc1ccc(Cn2c(/C=C/c3ccco3)nc3ccccc32)cc1 | – | active: 14.6 µM
21 | N#Cc1c(NC(=O)C(=O)NCCCN2CCOCC2)sc2c1CCCC2 | inactive: 1.35% | –
22 | CCN(CC)S(=O)(=O)c1cccc(C(=O)Nc2sc3c(c2C(N)=O)CCCC3)c1 | – | inconclusive [inhibitor, partial curve]
23 | Cc1cc(C(=O)N(C)Cc2c(F)cccc2Cl)c2ccccc2n1 | – | inconclusive [inhibitor, single point]
24 | O=c1[nH]cnc2sc3c(c12)CCCCC3 | – | inconclusive [inhibitor, single point]

Row | Structure (SMILES) | activity change, negative = growth inhibition | Potency
25 | COc1ccccc1N1CCN(C(=O)C(=O)c2cn(CC(=O)N3CCCCCC3)c3ccccc23)CC1 | – | inconclusive [inhibitor, single point]
26 | CC1C(=O)N2CCCc3cc(NC(=O)c4ccccc4F)cc1c32 (stereo not given) | inactive: -23.7% | –
27 | N#Cc1ccc(CN2CCC3(CC2)CCN(C(=O)c2cc(C(F)(F)F)cc(C(F)(F)F)c2)CC3)cc1 | – | active: 13 µM
28 | O=C(NCc1ccc(OC(F)(F)F)cc1)c1cccc2c1C(=O)c1ccc(N3CCC(Cc4ccccc4)CC3)cc1S2(=O)=O | – | active: 5.17 µM
29 | N#Cc1ccccc1Sc1ccccc1C(=O)OCc1nnc(-c2ccccc2)o1 | – | inconclusive [inhibitor, single point]
30 | Cc1ccccc1NC(=O)Cn1c(=O)n(Cc2ccc3c(c2)OCO3)c(=O)c2ccc(C(=O)NC3CCCCC3)cc21 | – | active: 7.31 µM
31 | CCSCc1nnc(SCC(=O)c2ccc(OC)cc2)n1C | inconclusive: -31% [inhibitor] | –
32 | CCN(c1ccccc1)S(=O)(=O)c1ccc2c(c1)CCCN2C(C)=O | – | inconclusive [inhibitor, partial curve]
33 | CC(=O)c1cccc(NC(=O)c2oc(=O)c3ccccc3c2-c2ccccc2)c1 | inactive: -17.3% | –
34 | CC(C)CN(CCNC(=O)c1cn(C)c2ccc(S(=O)(=O)N3CCOCC3)cc2c1=O)CC(C)C | – | inconclusive [inhibitor, single point]
35 | CCN1C(=NCc2ccc(OC)cc2)N[C@@H](c2ccccc2)[C@H](C(=O)OC)[C@H]1C | – | inconclusive [inhibitor, single point]
36 | COc1ccc(CCCc2nnc(SCC(=O)Nc3ccc(F)cc3)o2)cc1C | inactive: -17% | –
37 | Cn1cc([C@]2(O)C(=O)Nc3cccc(Cl)c32)c2ccccc21 | inconclusive: -30.7% [inhibitor] | –
38 | O=C(CN1CCC(n2nnc3cc(C(F)(F)F)ccc32)CC1)Nc1ccc2c(c1)OCCO2 | – | inconclusive [inhibitor, partial curve]
39 | C#CCNC(=O)c1cc(-c2ccccc2)sc1N | – | inconclusive [inhibitor, single point]
40 | C#CCOCCOCCOCCNc1nc(N2CCN(C(=O)CCCCCCCCCCNC(=O)Cn3cc(C[C@@H](C)O)nn3)CC2)nc(N2CCN(C(=O)CCCCCCCCCCNC(=O)[C@@H]([C@H](C)O)n3cc(C)nn3)CC2)n1 | – | active: 7.31 µM
41 | CC(C)(C)c1ccc(OC2=CS(=O)(=O)c3ccccc32)cc1 | – | inconclusive [inhibitor, single point]
42 | CCOC(=O)c1sc(N(Cc2ccccc2)C(=O)CSc2nnc(C3CC3)n2N)nc1C | – | inconclusive [inhibitor, partial curve]
43 | COc1cccc(CN(C)c2nc(-c3cccs3)nc3ccccc23)c1 | – | active: 20.6 µM
44 | CCC1(C)CC(CCNS(=O)(=O)c2ccc(C)cc2)(c2ccc(C)cc2)CCO1 (stereo not given) | – | active: 29.1 µM
45 | Fc1ccccc1COc1ccccc1CNCc1ccncc1 | – | inconclusive [inhibitor, partial curve, poor fit]
46 | Cc1ccc(OCCC(=O)OCC(=O)N2CCN(S(=O)(=O)c3ccc(C)cc3C)CC2)cc1 | – | inconclusive [inhibitor, single point]
47 | CSCCC(NS(=O)(=O)c1ccc(Cl)cc1)C(=O)OCC(=O)N1CCCc2ccccc21 (stereo not given) | – | active: 18.4 µM
48 | O=C(O)c1[nH]c2ccccc2c1NS(=O)(=O)Cc1ccccc1 | inactive: -1.23% | –

Row | Structure (SMILES) | activity change, negative = growth inhibition | Potency
49 | Cc1cc(C)cc(NC(=O)c2oc3ccc4c(c3c2C)C(=O)CC(C)(C)O4)c1 | – | inconclusive [inhibitor, full curve, poor fit]
50 | O=C(COC(=O)c1cccs1)Nc1ccccc1Cl | inactive: -5.92% | –
51 | O=C(C1CCN(c2nnc(N3CCCC3=O)s2)CC1)N1CCN(c2cccc(C(F)(F)F)c2)CC1 | – | active: 1.84 µM
52 | CCC(=O)N1CCc2cc(S(=O)(=O)CCC(=O)N3CCN(c4cccc(Cl)c4)CC3)ccc21 | – | active: 9.2 µM
53 | Cc1cc(NC(=O)CSc2ncnc3sc(C)c(C)c23)no1 | inactive: 2.4% | –
54 | CSc1ccc(C(=O)Nc2ccc(-c3nc4ccccc4s3)c(O)c2)cc1 | – | inconclusive [inhibitor, full curve]
55 | CCOC(=O)C1=C(C)N(C)C(C)=C(C(=O)OCC)C1c1ccncc1 | – | inconclusive [inhibitor, partial curve]
56 | COc1ccc(NC(=O)Nc2cccc3c2O[C@H](CN(C)C(=O)Nc2ccc(C(F)(F)F)cc2)[C@@H](C)CN([C@H](C)CO)C3=O)cc1 | – | active: 16.4 µM
57 | Cc1nn(C(C)C(=O)O)c(=O)c2c1sc1ccccc12 (stereo not given) | inactive: 0.455% | –
58 | CCOC(=O)/C(=N/Nc1ccc(Cl)cc1)S(=O)(=O)c1ccccc1 | – | inconclusive [inhibitor, partial curve]
59 | CC1(C)CC(=O)C=C(Nc2ccc(Cl)cc2)C1 | inactive: 2.83% | –
60 | CCOc1ccccc1-c1nc(CN2CCCC2c2nccs2)c(C)o1 (stereo not given) | – | inconclusive [inhibitor, single point]
61 | CCOCCn1c(CN2CCCC(C)C2)nc2c1c(=O)n(C)c(=O)n2C (stereo not given) | inactive: 10.6% | –
62 | CC[C@H](C)[C@@H](NC(=O)O[C@@H]1C(=O)c2cc(OC)ccc2O[C@H]1c1ccc(OC)c(Br)c1)C(=O)OC | – | active: 18.4 µM
63 | O=C(Nc1ccccn1)c1ccc([N+](=O)[O-])o1 | – | active: 16.4 µM
64 | CSc1nc(N)nc(SCC(=O)c2ccc(C)cc2)c1C#N | – | inconclusive [inhibitor, partial curve]
65 | O=C(/C=C/c1cn(CC(O)CN2CCCCCC2)c2ccccc12)c1cccs1 (stereo not given) | – | inconclusive [inhibitor, single point]
66 | COCCCNC(=O)CCC(=O)Nc1ccc2nc(N3CCOCC3)cc(C)c2c1 | inactive: -11.9% | –
67 | Cc1cc(C)cc(N(C(=O)c2nsc(Cl)c2Cl)C(C(=O)NC2CCCC2)c2ccc(O)cc2)c1 (stereo not given) | – | inconclusive [inhibitor, partial curve, poor fit]
68 | COc1ccc(N2CCN(C(=O)CCC(=O)NNc3nc4ccccc4c4nc(C)nn34)CC2)cc1 | – | inconclusive [inhibitor, single point]
69 | Cc1ccc(NC(=O)c2ccccc2-c2ccc(C(F)(F)F)cc2)cc1S(=O)(=O)N1CCOCC1 | – | active: 14.6 µM
70 | Cc1cc(C(=O)CSc2nc3ccccc3[nH]2)c(C)n1C | – | inconclusive [inhibitor, single point]
